Laboratory results: the supplement of paper PMC11417369
The list shows a part of the results.

Test system: PfSIP2 AP2 domain 1 (GST-tagged)
Assay: gcPBM binding intensity (ln(normalized median fluorescence intensity)); higher = stronger DNA binding
Procedure, shortened: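 Binding of GST-tagged P. falciparum DNA-binding domains, expressed in E. coli and used at about 25 μg on average, was carried out for 1 h in 1× PBS containing 1% milk, 0.2 mg/ml BSA, 0.5% salmon testes DNA and 0.03% Triton X-100. The target was an Agilent 4 × 180k array of primer-extended double-stranded 36-bp intergenic genomic probes plus negative controls, read with Alexa488 anti-GST antibody at 488 nm. Binding intensity is the highest Masliner-normalised natural-log median intensity across replicate spots of either probe orientation.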

Sequence	gcPBM binding intensity (ln)
TCATTCATATGTTACACACACACACGCACATAAAAA [CACACA_site7514]	7.46
AAGTTGGAAAGGTTATGTACTTATTTTTTAAAATAA [XGTACX_site204]	6.91
ATCTATATCTATAATACACACTAAAGTAACAGAATA [CACACA_site7370]	7.14
GTATCTCATTATTCGTGTACTAAACACATAAAAATA [XGTACX_site2262]	7.84
GATTTACAACACGAACGTACAGAACAAAAAGGAAAA [XGTACX_site6501]	7.19
TGTTTAAAGGAAAAGGAGTAGTCTATTATATTATCT [CACACA_negctrl_site858]	6.78
AATGTAAAAGTAAACACACACATATATATATACATA [CACACA_site2484]	6.85
TATAAAAATAAAAAAAGTACACATAAAAATATATAT [XGTACX_site5189]	7.22
TATTGTATTTAATAAACACACAATATTAAAAATATA [CACACA_site4725]	6.91
CATATATACACATACACACACACACGGACACGCACA [CACACA_site6910]	7.74
ATACACATATATGTGTGTACTCACCTTTTAATATGA [XGTACX_site4349]	7.16
TTTAATTTGTTATACACACACAAAAAAAGTTATAAA [CACACA_site7779]	7.01
TCTTTCTTATATTTATATAATTATATTTATTTTATA [GTGCAC_negctrl_site300]	7.13
GGAATACAGGAAAAAAGTACAGAAAATGGAATATTA [XGTACX_site5053]	7.03
ATATAATGTTATAGAAGTACATGAAATACTTATTTA [XGTACX_site8850]	6.73
AACATTTATAAATATTGTACATATAGATTTATATAT [XGTACX_site2662]	7.06
AAAATAAAATAACGTTGTACAACATCATTTCTATAT [XGTACX_site5080]	6.84
AACAATATATTGAATAGTACATATATATAAACATAT [XGTACX_site2811]	7.04
ATTATACAAAATGGTAAGGAAAAGGAAATTTTTTTT [CACACA_negctrl_site1090]	6.66
CAATATTATATATATACACACATAATCTGTAAAAAC [CACACA_site1068]	7.07
CATATATATATATATACACACATATATATTTTCTTT [CACACA_site1457]	7.54
AAAAAAAAAAATATCACACACACATAAATATAAACA [CACACA_site7138]	6.97

Sequence	gcPBM binding intensity (ln)
AAAGTAGGCTTATATGCACACTTTGAAATATTATAA [CACACA_site5117]	7.07
ATAAAAATTGATTATACACACGCGCACCCACAACAA [CACACA_site3536]	11.2
TATTTATAAATTTACACACACACATGGGAACATAAA [CACACA_site5111]	7.25
ATGTCAAATTTTTGTGCACACATATATAGTTATTAT [CACACA_site2242]	9.47
TATATATATCAGCAATGTACACAATGCATATTATAT [XGTACX_site4836]	7.11
TAAGGATAAATAAAATGAAATGAAATAAATAAATGA [XGTACX_negctrl_site539]	6.82
TTATTTTATTTTAAAAAAAACAATATAAATTCAAAG [GTGCAC_negctrl_site57]	6.98
TCTACAATTATAATTACACACTATAAAAAAGAAAGA [CACACA_site2984]	7.08
AAAAATAGGAACCAATATCCAACGTGACTTTATAAT [CACACA_negctrl_site1011]	6.76
ATTTTTTTTTTTTTTTTTTTTTTTTTTTGATTTGTG [CACACA_negctrl_site1391]	6.86
AAAATAATTATGAATTGTACAGGTTTTTTTTTTTTT [XGTACX_site220]	6.96
AAAAAATTTTTAAGCACACACATAGATAATATATAT [CACACA_site1555]	7.35
GGAAAAAAAAAAAAAAAACACACGGTACATTCAAAC [CACACA_site2715]	6.79
ATGGTTTAGTTATATACACACTCGAAAATAACGACA [CACACA_site7520]	7.09
TATAAAAATATATTTACACACTATATATATCGAAAG [CACACA_site1700]	7.04
ATATATTTTCAAAAAAGTAAATCAAAATAAATATAT [TGCATGCA_negctrl_site319]	7.04
TCCAAATACAACTACACACAAACAAAAATTATATAT [CACACA_site881]	7.03
AAAATTTTTCTTAAAGCATGCACAATTAAGAAGACG [TGCATGCA_site883]	7.81
TTTTTTTTAAGAGATAGTACATAAATATTATAATAT [XGTACX_site4685]	7.07
AAATAAAATTTTATGTGTACGCAAAAAGTTGTAAGC [XGTACX_site8911]	7.47
TTAAAATTAATTCACCAGTATTAAAATAAAAACGAA [CACACA_negctrl_site1428]	7.56
AATAAATAAATATATACACACATATATATATAATAT [CACACA_site921]	7.08

Sequence	gcPBM binding intensity (ln)
TACAATCTAAAATACACACACACAAACATATATTTA [CACACA_site3702]	7.02
ATATTAATATATATGTTTTATTACCATTTTATGTAT [CACACA_negctrl_site1761]	7.05
AAGATATATATAGAAAGTACTTATATTTGTATAATT [XGTACX_site8855]	6.91
ATTTAATAACGGCATGCATGTCCTTATATAAATTTA [TGCATGCA_site1012]	6.79
TGAATTGTAATTTATAATATACGTGGTTTCTACTTA [CACACA_negctrl_site559]	6.66
CCTTACCAAATAATATGTACACATTTAATGTTATAT [XGTACX_site7840]	7.22
TATTATATATTATATAGTACATATTTATGTAAGAGG [XGTACX_site3099]	7.43
TATCAGTATACAACAACACACATAATGTTTGTCATC [CACACA_site2980]	6.92
CACTTAAAAAAAATACGTACACATATATATATATAT [XGTACX_site2054]	9.47
CAAAAATAAATATAAACACACAATAAATAAATAAAT [CACACA_site891]	6.69
ATGGTATCTTTTAGAAGTACATCATGATAATAATTT [XGTACX_site5544]	7.18
GATCATAATATTTAAAAGAATATATATAAAAAGGAA [XGTACX_negctrl_site310]	7.03
GTATTAATTTATATATGTACATATGTGATATATATA [XGTACX_site5825]	7.4
CAAAATTAATAAGTCACACACACATATATAATATAT [CACACA_site798]	7.07
TATAAAAATATATGCACACAAATAAAAAATTATATA [CACACA_site3629]	8.26
TATATTTATACAATATGTACATATTATATATATATA [XGTACX_site3098]	8.47
TCATAGCACAAAAAATGTACTTATTATTTAATATTT [XGTACX_site5687]	6.82
ATGTGATAATTTAATAGTACATAACAGTTTAACAAT [XGTACX_site5854]	7.16
TTTTTTATTAAATATATATAATAATAATAATTTGTA [CACACA_negctrl_site1719]	6.88
TTATAATAAATATTTATTATATATAATATATATTAC [CACACA_negctrl_site1802]	6.89
TATATTATATATTTATGTACGTATTTGTAAAAAGAT [XGTACX_site3444]	7.49
TTTGTTTTATGTGGTTGTACACAAATACAATTTAAA [XGTACX_site5156]	7.32

Sequence	gcPBM binding intensity (ln)
ATAATAATTATATCAGTGCGCATATATATTTATTTA	9.87
GTTTCCTTAATATTCACACACATATCTATAATATAT [CACACA_site6959]	7.56
TTTATATGCAATTAAGTGCATAAGAAAAAAAAAGGA [GTGCAC_site9966]	8.46
CAAACAAATTGTGAAACACACATATTTATATTTATA [CACACA_site7030]	6.72
TTATAAAATAAACTTACACACATGAAATATTATAGT [CACACA_site7000]	6.84
AAAAACAATCATTTTAAATAAAAATCTCTAATTTAA [GTGCAC_negctrl_site138]	6.52
ATTTGTTCATTTGGTTGTACATAATTTATTTTTATA [XGTACX_site785]	7.26
TTTTCATTTTTTTTTTTTTTTTTTTTTCTTTTTTTT [CACACA_negctrl_site1312]	6.85
ATTTCTTTAATATACACACACCAAAACAAAAAAAAA [CACACA_site6416]	7.4
GTTGTGTAATTCGTAACACACATAAAATATATATAA [CACACA_site6059]	6.97
ATATAGTTCGATATAGTTAGTATGAATTGAAAAATA [CACACA_negctrl_site1826]	6.92
TTTTTAAAATATTTAACACACAATTTTAATGCATAA [CACACA_site6036]	6.75
AAAAAAATAAAACACACACACAAAAAAATAAAAATA [CACACA_site465]	6.84
GAAATTAAATGACATACACACTATATTATATATTTT [CACACA_site5693]	6.82
TAGATAGATTAAAATACATGCATATTATTAAAAAAT [TGCATGCA_site739]	6.88
CACCCATACACATACAAACACACATTCTATATATAT [CACACA_site1600]	7.92
AGCATAAAAATGATATGTACATATATATATATATAT [XGTACX_site2836]	9.18
CATACATACATACATACACACATACATATGTATATA [CACACA_site7216]	8.04
ATTTAATGTATTTTGCGTACGAATTATTTTATTTCA [XGTACX_site7331]	7.19
AATCATAAACATTATGCACACAAAAATAAAAAAAAA [CACACA_site8289]	7.36
TATCTTCAATGTGAAAGTACTTAAATTGTTATAAAA [XGTACX_site2586]	6.94
